Measured values reported in PubChem BioAssay AID1508642 (National Center for Advancing Translational Sciences (NCATS), 2021).
Out of some 43,000 compounds screened, about 200 (0.47%) were called active. Inconclusive results (about 12%) are left out. Calls come from the whole dose curve; as a rule, active = well fitted cell-killing curve with a large enough effect; inconclusive = small, poorly fitted or top-dose-only effect, or effect the other way; inactive = flat fitted curve, though single readings scatter. This is one part of the list.

assay: Cell viability qHTS assay in S16 Pmp22-F2sN cells; conditions: S16 Pmp22-F2sN Schwann cells viability, CellTiter-Glo, 24 h; series mostly up to 57.5 µM; activity change, negative = cytotoxicity: at the top concentration; note: nearly all actives have a fitted effect of over 65% in size
Procedure, shortened: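 Used to flag compounds lowering reporter output through toxicity, this quantitative HTS measures ATP-based CellTiter-Glo luminescence in S16 Pmp22-F2sN Schwann cells after 24 h compound exposure at 37C.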
% is set by controls: 0 for no effect and ±100 for the full control effect.

| SMILES | activity change, negative = cytotoxicity |
| --- | --- |
| CCC(=O)N1CCc2cc(Br)cc(S(=O)(=O)CCC(=O)NCc3ccc(Cl)cc3)c21 | inactive: -2.98% |
| Cc1nc(Oc2ccc(F)cc2Cl)c2oc3ccccc3c2n1 | inactive: 2.21% |
| Cc1ccc(C)c(NC(=O)CN2C(=O)C(C)(C)c3ccccc32)c1 | inactive: 12.7% |
| COc1ccc(Br)cc1CNC(=O)c1cc2n(n1)CCCN(Cc1ccc(C)cc1)C2=O | inactive: -14.8% |
| O=C(Nc1sc2c(c1C(=O)NCc1ccco1)CCCC2)c1cc(=O)c2ccccc2o1 | inactive: 1.79% |
| Cc1ccc(CNC(=O)CC(C)S(=O)(=O)c2cc3c(cc2C)NC(=O)CO3)cc1 (stereo not drawn) | inactive: 7.84% |
| CSC1=NC2(CCN(C(=O)NC3CCCCC3)CC2)N=C1c1ccc(C)c(C)c1 | inactive: -14.2% |
| Cc1ccc(NC(=O)CCc2nnc3n(C)c(=O)c4sccc4n23)cc1C | inactive: -4.55% |
| CC(C)Oc1ccc(C(=O)N(Cc2ccco2)c2ccccn2)cc1 | inactive: 0.322% |
| Cc1ccc(C2c3[nH]c4ccccc4c3CCN2C(=O)c2cccc(C)c2)cc1 (stereo not drawn) | inactive: 5.02% |
| CC(C)Nc1ccc(-c2nc(-c3ccco3)no2)cc1[N+](=O)[O-] | inactive: -9.86% |
| CCOCCCNC(=O)C(c1ccc(C)cc1)N(Cc1ccc2c(c1)OCO2)C(=O)c1ccc(NC(C)=O)cc1 (stereo not drawn) | inactive: -19% |
| Cc1ccc2nc(N3CCC(C(=O)N4CCN(c5cccc(Cl)c5)CC4)CC3)[nH]c2c1 | inactive: -16.5% |
| CCC(C)NC(=O)c1ccccc1NC(=O)CN1C(=O)c2cccc3cccc1c23 (stereo not drawn) | inactive: 18.2% |
| COc1ccc(-c2cc(C(=O)OC(C)C(=O)c3ccccc3)c3cccc(Cl)c3n2)cc1 (stereo not drawn) | inactive: 22.8% |
| c1ccc(Nc2c(-c3c[nH]c4ccccc34)nc3ccccn23)cc1 | inactive: -7.63% |
| Cc1cccc(NC(=O)c2nnn(CC(=O)Nc3ccc(C(C)C)cc3)c2N)c1C | inactive: 0.26% |
| COc1cc(C(=O)NCC(c2cccs2)S(=O)(=O)c2ccc(F)cc2)cc(OC)c1OC (stereo not drawn) | inactive: 9.08% |
| CCOC(=O)c1c(C)[nH]c(CCC(=O)Nc2ccc(C)c(F)c2)c1C | inactive: -0.435% |
| CC(C)NC(=O)CN1C(=O)COc2ccc(S(=O)(=O)N3CCCCCC3)cc21 | inactive: 11.4% |
| COc1cc2cc(CNc3ccc(C)cc3)c(=O)n(CC(=O)Nc3ccc(F)cc3F)c2cc1OC | inactive: -1.48% |
| Cc1ccc(CSc2nnc(CCNC(=O)OC(C)(C)C)o2)cc1 | inactive: 14.5% |
| COc1ccc(OC)c(NC(=O)CSc2nnc3ccc4ccccc4n23)c1 | inactive: 1.43% |
| O=C(NCc1ccccc1Cl)c1ccc(CSCc2ccccc2Cl)o1 | inactive: -4.67% |

| SMILES | activity change, negative = cytotoxicity |
| --- | --- |
| CCC(Sc1nc2cc(OC)c(OC)cc2c2nc(-c3ccccc3)nn12)C(=O)Nc1cccc(C)c1 (stereo not drawn) | inactive: -0.356% |
| COc1ccc(NC(=O)C2=C(C)Nc3nc(SCc4ccccc4C)nn3C2c2cc(OC)c(O)c(OC)c2)cc1 (stereo not drawn) | inactive: 1.79% |
| Cc1ccc(-n2ncc(C(=O)NCc3cccs3)c2C2CCN(C(=O)OC(C)(C)C)CC2)c(C)c1 | inactive: -22.4% |
| CN(Cc1ccccc1)C(=O)Nc1ccc2c(c1)N(C)C(=O)c1ccccc1S2 | inactive: -19.5% |
| CCc1ccc(NC(=O)CCn2nc(-c3ccccc3OC)c3c(C)cc(C)nc32)cc1 | inactive: -5.64% |
| COc1ccc(-c2noc(CC(=O)Nc3ccc(F)cc3F)n2)cc1 | inactive: -0.881% |
| Cc1ccc(-c2nnc(Nc3cccc(O)c3)c3ccccc23)cc1S(=O)(=O)N1CCOCC1 | inactive: 10.8% |
| COc1ccccc1OC(C)C(=O)Nc1ccc(-c2nc3ccccc3s2)cc1 (stereo not drawn) | inactive: -0.413% |
| CCC(C(=O)NCc1ccccc1)n1nc(C)c2sc3ccccc3c2c1=O (stereo not drawn) | inactive: -4.97% |
| COc1ccc(NC(=O)CCn2c(=O)c3cccn3c3cccnc32)c(OC)c1 | inactive: 4.86% |
| COC(=O)c1cc(S(=O)(=O)N2CCN(c3cccc(C)c3)C(C)C2)cn1C (stereo not drawn) | inactive: -1.88% |
| NC(=O)c1ccccc1NC(=O)c1ccc(-c2ccc(Br)cc2)o1 | inactive: -0.798% |
| O=C(Cn1ncc2c3ccccc3n(Cc3ccc(Cl)cc3)c2c1=O)NCc1ccccn1 | inactive: 1.56% |
| O=C(CSc1nnc(-c2ccccc2)o1)c1cccc([N+](=O)[O-])c1 | inactive: 1.11% |
| CCOC(=O)c1c(C)[nH]c(CCC(=O)NCc2ccc(CC)cc2)c1C | inactive: -6.08% |
| CC(=O)c1cccc(NC(=O)Cn2nc(C)n3cccc3c2=O)c1 | inactive: -2.24% |
| CCN(CC)CCCNC(=O)c1ccc2c(=O)n(CCc3ccccc3)c(=O)[nH]c2c1 | inactive: -5.92% |
| CCc1ccc(-n2cnc3cc(C(=O)NCc4ccc(C)cc4)ccc32)cc1 | inactive: -4.39% |
| CC(=O)N1CCCc2cc(S(=O)(=O)N3CCC(C(=O)Nc4cccc(Cl)c4C)CC3)ccc21 | inactive: -29% |
| CCN(CC)C(=O)c1c(-c2ccccc2)c(-c2ccccc2)nn(C)c1=O | inactive: 15.4% |
| CCc1ccc(C(=O)c2cn(CC(=O)Nc3cc(C)ccc3C)c3nc(C)ccc3c2=O)cc1 | inactive: 7.82% |
| O=C(CSc1nnc(-c2cccs2)o1)Oc1ccccc1 | inactive: 15.5% |
| COc1ccc(N2CCN(C(=O)CCn3nc(C)c(S(=O)(=O)N4CCCC4)c3C)CC2)cc1 | inactive: 15.5% |
| COc1cc(NC(=O)Cn2c(=O)n(Cc3ccco3)c(=O)c3sc4ccccc4c32)cc(OC)c1 | inactive: 10.2% |

| SMILES | activity change, negative = cytotoxicity |
| --- | --- |
| CCN(CC)C(=O)c1sc2c(c1C)c(=O)n(-c1ccc(Cl)c(Cl)c1)c(=O)n2Cc1ccccc1C#N | inactive: -28.7% |
| COCCCNc1oc(/C=C/c2cc(OC)c(OC)c(OC)c2)nc1C#N | inactive: -12.8% |
| Cc1cc(-c2ccc(C)c(S(=O)(=O)N3CCN(c4cccc(C(F)(F)F)c4)CC3)c2)on1 | inactive: 0.434% |
| CN(C)c1ccc(-c2nc(-c3cc4cc(Cl)ccc4oc3=O)cs2)cc1 | inactive: 4.28% |
| CCc1cccc(NC(=O)CCC(=O)N2CCSc3ccccc32)c1 | inactive: -4.23% |
| Cc1ccc(Oc2c(C(F)(F)F)oc3c(CN4CCC(C)CC4)c(O)ccc3c2=O)cc1 | inactive: 15.2% |
| Cc1ccc(N2CCN(C(=O)c3c(C)oc4ncn(CC(C)C)c(=O)c34)CC2)c(C)c1 | inactive: 7.81% |
| Cc1cccc(NC(=O)CSc2ncc3c(n2)-c2ccccc2N(Cc2ccc(F)cc2)S3(=O)=O)c1C | inactive: 2.97% |
| Cc1ccc(C)c(N2CCN(C(=O)C3CCN(c4nc5ccc(C)cc5[nH]4)CC3)CC2)c1 | inactive: -7.7% |
| COc1ccc(-n2c(=O)c3c(c4cc(OC)ccc4n3C)n(Cc3cccc(OC)c3)c2=O)cc1 | inactive: -15.7% |
| COc1ccc(-c2cc3nc(C)c(CCC(=O)Nc4ccccc4C(C)=O)c(C)n3n2)c(OC)c1 | inactive: 0.397% |
| O=C(CCC1N=C2c3ccccc3N=C(SCc3ccc(F)cc3)N2C1=O)NCc1ccc(F)cc1 (stereo not drawn) | inactive: -28.7% |
| O=C(CCc1nc(CN2CCN(S(=O)(=O)c3ccc(Cl)cc3)CC2)no1)N1CCCCC1 | inactive: -4.02% |
| CCc1cccc(C)c1NC(=O)Cn1ccn(-c2cccc(OC)c2)c(=O)c1=O | inactive: 2.08% |
| Cc1cccc(Cn2c(SCc3ccc(C(=O)NCCc4ccccc4)cc3)nc3ccncc32)c1 | inactive: -16.5% |
| O=C(CSCc1cccc(F)c1)NCc1ccccc1 | inactive: 4.07% |
| Fc1cccc(-n2ncc3c2ncn2nc(COc4ccc(Cl)cc4)nc32)c1 | inactive: 6.93% |
| CCCC1=Nc2cc(C(=O)NCc3ccc(OC)cc3)ccc2Sc2ccc(C)cc21 | inactive: -7.28% |
| CN1CCc2c(sc3c2C(=O)NC(c2ccc(OC(=O)c4ccc(C(C)(C)C)cc4)cc2)N3)C1 (stereo not drawn) | inactive: 7.71% |
| Cc1nc2scc(C)n2c(=O)c1S(=O)(=O)Nc1ccc(N2CCOCC2)c(Cl)c1 | inactive: -25.8% |
| CCOc1ccc(C(=O)NCCn2cc(SCC(=O)Nc3ccc4c(c3)OCCO4)c3ccccc32)cc1 | inactive: -4.47% |
| CCOc1ccc(-c2nc(CSCC(=O)N3CCN(c4ccc(F)cc4)CC3)c(C)o2)cc1 | inactive: -24.7% |
| CCCCn1c2ccc(F)cc2c2nnc(SCCN(CC)CC)nc21 | inactive: -7.26% |
| Cc1ccc(CNC(=O)c2c3c(nc4ccccc24)C(=O)N(C2CCCCC2)C3)cc1 | inactive: -5.21% |

| SMILES | activity change, negative = cytotoxicity |
| --- | --- |
| COc1ccc(NC(=O)c2cc3c(=O)[nH]c4ccccc4c3n2C)cc1Cl | inactive: 5.03% |
| CCCN(C(=O)CCc1nc(-c2ccccc2F)no1)c1ccc(CC)cc1 | inactive: -1.42% |
| COc1ccc(CC(=O)NCc2nc3cccnc3n2Cc2ccc(F)cc2)cc1OC | inactive: -0.0434% |
| CCOc1cc2[nH]c(=O)n(Cc3ccc(C(=O)NCCN(CC)CC)cc3)c(=O)c2cc1OCC | inactive: -2.78% |
| COc1ccc(Cl)cc1NC(=O)CSc1nccn1Cc1ccco1 | inactive: 2.64% |
| COc1cccc(NC(=O)CSc2nc3ccccc3nc2N2CCOCC2)c1 | inactive: 0.467% |
| CCc1ccc(CN2C(=O)c3ccccc3C2C(=O)NCCc2ccc(OC)c(OC)c2)cc1 (stereo not drawn) | inactive: -0.173% |
| CN(CC(=O)Nc1cccc(C(F)(F)F)c1)S(=O)(=O)c1ccc2[nH]c3c(c2c1)CCCC3 | inactive: -15.5% |
| CCN(C(=O)c1oc2ccc(S(=O)(=O)N3CCCCCC3)cc2c1C)c1ccccc1 | inactive: -2.98% |
| CCOC(=O)c1cccc(NC(=O)CN2C(=O)CC(C)(C)Sc3ccccc32)c1 | inactive: 6.76% |
| Cc1ccc(Nc2c(-c3ccc(N4CCOCC4)cc3)nc3ncccn23)cc1 | inactive: -7.1% |
| CCOC(=O)c1cc(S(=O)(=O)N2CCN(c3ccc(OC)cc3)CC2)[nH]n1 | inactive: -1.49% |
| Cc1cccc(C)c1OCc1nc2c3cnn(-c4cccc(F)c4)c3ncn2n1 | inactive: -5.71% |
| COc1ccc(CCNC(=O)CCCn2c(=O)c3ccccc3n(Cc3ccccc3C)c2=O)cc1OC | inactive: 5.55% |
| Cc1ccc(-n2ncc(C(=O)NCCN3CCc4ccccc4C3)c2C2CCN(C(=O)OC(C)(C)C)CC2)cc1 | inactive: -18.6% |
| CCCCn1cc(S(=O)(=O)c2ccc(OC)cc2)c(=O)c2cc(F)c(N3CCCC3)cc21 | inactive: 18.8% |
| COc1ccccc1CNC(=O)CN1C(=O)COc2ccc(S(=O)(=O)N3CCCCC3)cc21 | inactive: -0.987% |
| O=S(=O)(NCc1cccc(Br)c1)c1ccc(-c2cc(C(F)(F)F)on2)s1 | inactive: -0.467% |
| Cc1cc(C)cc(N2C(=O)N(CC(=O)c3ccc(Br)cc3)c3ccccc3S2(=O)=O)c1 | inactive: -0.339% |
| COC(=O)c1sccc1S(=O)(=O)N(CC(=O)NCc1ccc(C)cc1)c1ccc(Cl)cc1 | inactive: 4.94% |
| COc1ccc(C(=O)Nc2ccc3nc(SCC(=O)N4CCCc5ccccc54)sc3c2)cc1 | inactive: -10.2% |
